# Results taken from ChEMBL document CHEMBL5606460, “ASAP - DENV-2 NS2B-NS3 protease fluorescence single point” (2024).
# About 110 (5.5%) of roughly 2,000 compounds showed an effect of 50% or more. The list shows a part of the results.
# Target: Genome polyprotein (dengue virus type 2) (UniProt P29990)
# [1] = Thailand/16681/1984, Concentration 25.0 uM, Number of replicates 1.0
smiles,measurement,setting,value
O=C(NCc1cocn1)c1cc(Cl)ccc1NS(=O)(=O)c1ccc(Oc2ccccc2Cl)cc1,inhibition,"Thailand/16681/1984, Concentration 49.5 uM, Number of replicates 2.0, Standard deviation 0.2927162692291327 %",78.5%
same,inhibition,"Thailand/16681/1984, Concentration 99.01 uM, Number of replicates 2.0, Standard deviation 0.11144031356026086 %",70.2%
same,inhibition,"Thailand/16681/1984, Concentration 198.0 uM, Number of replicates 2.0, Standard deviation 0.4940824474713894 %",60.8%
Cc1nn(C)nc1-c1nn(C)cc1NC(=O)c1ccccc1C(F)(F)F,inhibition,"Thailand/16681/1984, Concentration 49.5 uM, Number of replicates 2.0, Standard deviation 2.7709187614774393 %",-3.06%
same,inhibition,"Thailand/16681/1984, Concentration 99.01 uM, Number of replicates 2.0, Standard deviation 2.812620033505876 %",-2.31%
same,inhibition,"Thailand/16681/1984, Concentration 198.0 uM, Number of replicates 2.0, Standard deviation 2.009504923047635 %",-2.5%
NCc1cccc(NC(=O)[C@H]2COCCN2C(=O)OCc2ccccc2)c1,inhibition,"Thailand/16681/1984, Concentration 49.5 uM, Number of replicates 2.0, Standard deviation 2.1985984026188525 %",-2.35%
same,inhibition,"Thailand/16681/1984, Concentration 99.01 uM, Number of replicates 2.0, Standard deviation 3.141935382649838 %",-2.12%
same,inhibition,"Thailand/16681/1984, Concentration 198.0 uM, Number of replicates 2.0, Standard deviation 3.1268064131286404 %",-1.63%
O=Cc1ccc(N2CCC(C(=O)NCCC(=O)NC3CCCCC3)CC2)cc1,inhibition,[1],14.2%
O=Cc1ccc(N2CCC(C(=O)Nc3cccc(Br)c3)CC2)cc1,inhibition,[1],13%
CC(C)(CO)NC(=O)c1cc(Cl)cc(NC(=O)c2ccccc2Oc2cccnc2)c1,inhibition,"Thailand/16681/1984, Concentration 49.5 uM, Number of replicates 2.0, Standard deviation 1.8446626979627367 %",-2.61%
same,inhibition,"Thailand/16681/1984, Concentration 99.01 uM, Number of replicates 2.0, Standard deviation 2.0703393680868953 %",-0.983%
same,inhibition,"Thailand/16681/1984, Concentration 198.0 uM, Number of replicates 2.0, Standard deviation 1.68374527170487 %",-0.13%
Cc1cc(-c2ccccc2C(=O)Nc2cnn(C)c2)cnc1F,inhibition,"Thailand/16681/1984, Concentration 49.5 uM, Number of replicates 2.0, Standard deviation 1.8621671270862812 %",-3.16%
same,inhibition,"Thailand/16681/1984, Concentration 99.01 uM, Number of replicates 2.0, Standard deviation 1.7076305651055699 %",-2.86%
same,inhibition,"Thailand/16681/1984, Concentration 198.0 uM, Number of replicates 2.0, Standard deviation 1.0479519697231194 %",-2.2%
Cc1cc(CO)c2cccc(NC(=O)c3ccno3)c2n1,inhibition,"Thailand/16681/1984, Concentration 49.95 uM, Number of replicates 2.0, Standard deviation 1.5532125200628712 %",10.1%
same,inhibition,"Thailand/16681/1984, Concentration 99.9 uM, Number of replicates 2.0, Standard deviation 1.6079353138198398 %",17.5%
O=Cc1ccc(N2CCC(C(=O)Nc3nc(Cl)nc4nc[nH]c34)CC2)cc1,inhibition,[1],13%
CC(=O)N[C@@H](CCCN)C(=O)N[C@@H](Cc1cccc2c(CO)cc(C)nc12)C(=O)O,inhibition,"Thailand/16681/1984, Concentration 49.95 uM, Number of replicates 2.0, Standard deviation 0.5992602451051136 %",3.09%
same,inhibition,"Thailand/16681/1984, Concentration 99.9 uM, Number of replicates 2.0, Standard deviation 0.2553775331963615 %",10.4%
Cc1cc(CO)c2cccc(Cc3cccc(C(=O)N[C@H](Cc4c[nH]cn4)C(=O)O)c3)c2n1,inhibition,"Thailand/16681/1984, Concentration 49.95 uM, Number of replicates 2.0, Standard deviation 1.5537254050624003 %",0.28%
same,inhibition,"Thailand/16681/1984, Concentration 99.9 uM, Number of replicates 2.0, Standard deviation 1.0362959215926437 %",8.77%
O=Cc1ccc(N2CCC(C(=O)NCCc3nc(-c4ccc(Cl)cc4)no3)CC2)cc1,inhibition,[1],2.16%
CNC(=O)c1cc(Cl)ccc1NS(=O)(=O)c1ccc(NS(C)(=O)=O)cc1,inhibition,"Thailand/16681/1984, Concentration 49.5 uM, Number of replicates 2.0, Standard deviation 0.6295365180266114 %",1.5%
same,inhibition,"Thailand/16681/1984, Concentration 99.01 uM, Number of replicates 2.0, Standard deviation 0.4200098669756753 %",3.13%
same,inhibition,"Thailand/16681/1984, Concentration 198.0 uM, Number of replicates 2.0, Standard deviation 0.4807630318175827 %",6.02%
CC(C)Nc1nc2ccc(C(=O)Nc3cncc(F)c3)cc2[nH]1,inhibition,"Thailand/16681/1984, Concentration 49.5 uM, Number of replicates 2.0, Standard deviation 1.9887225227811554 %",-0.703%
same,inhibition,"Thailand/16681/1984, Concentration 99.01 uM, Number of replicates 2.0, Standard deviation 1.2158747079656789 %",-0.15%
same,inhibition,"Thailand/16681/1984, Concentration 198.0 uM, Number of replicates 2.0, Standard deviation 2.839943587782754 %",1.93%
Cc1nc(C)c(CN2CCC(c3c[nH]c4cccnc34)CC2)s1,inhibition,"Thailand/16681/1984, Concentration 49.5 uM, Number of replicates 2.0, Standard deviation 0.3047269830898277 %",-1.17%
same,inhibition,"Thailand/16681/1984, Concentration 99.01 uM, Number of replicates 2.0, Standard deviation 0.9100574280517228 %",-1.83%
same,inhibition,"Thailand/16681/1984, Concentration 198.0 uM, Number of replicates 2.0, Standard deviation 0.6230614133961857 %",-2.99%
Nc1ccc(C(=O)Nc2nc3ccccc3s2)nc1,inhibition,"Thailand/16681/1984, Concentration 49.5 uM, Number of replicates 2.0, Standard deviation 0.7781913187102333 %",-1.85%
same,inhibition,"Thailand/16681/1984, Concentration 99.01 uM, Number of replicates 2.0, Standard deviation 0.46638176846239243 %",1.53%
same,inhibition,"Thailand/16681/1984, Concentration 198.0 uM, Number of replicates 2.0, Standard deviation 0.8805292616912934 %",22%
Cc1cnccc1NC(=O)c1ccnc(C(C)C)n1,inhibition,"Thailand/16681/1984, Concentration 49.5 uM, Number of replicates 2.0, Standard deviation 0.008671018658116017 %",-0.448%
same,inhibition,"Thailand/16681/1984, Concentration 99.01 uM, Number of replicates 2.0, Standard deviation 1.3196182588812893 %",1.15%
same,inhibition,"Thailand/16681/1984, Concentration 198.0 uM, Number of replicates 2.0, Standard deviation 0.7955645868412119 %",4.29%
Cc1cc(CO)c2cccc(CC(=O)Nc3nonc3C(N)=O)c2n1,inhibition,"Thailand/16681/1984, Concentration 49.95 uM, Number of replicates 2.0, Standard deviation 0.10454576349345478 %",97.1%
same,inhibition,"Thailand/16681/1984, Concentration 99.9 uM, Number of replicates 2.0, Standard deviation 0.006921524049853062 %",99%
Cc1cnccc1NC(=O)CNC(=O)CC(C)C,inhibition,"Thailand/16681/1984, Concentration 49.5 uM, Number of replicates 2.0, Standard deviation 0.9445281131901762 %",-0.087%
same,inhibition,"Thailand/16681/1984, Concentration 99.01 uM, Number of replicates 2.0, Standard deviation 0.670433522818339 %",-0.096%
same,inhibition,"Thailand/16681/1984, Concentration 198.0 uM, Number of replicates 2.0, Standard deviation 1.5079978445957176 %",-0.131%
